Source: US6500842B1, “8-hydroxy-7-substituted quinolines as anti-viral agents” (Pharmacia & Upjohn Company, priority 1996, dated 2002)
Values joined by “and” are separate entries in the source; they are usually repeats but may differ in a detail not shown here. Equal values may be shown once. At least one read-out could not be matched to a standard name with certainty.

Target: T1, HCMV polymerase (Human cytomegalovirus, UniProt P08546)
T1 construct: made in house; host or cells: recombinant baculovirus-infected SF-9 cells
Assay: HCMV polymerase assay (scintillation proximity assay)
Type: biochemical
Conditions: for CMV pol Assay % Inhib: Table 1
Protocol: The HCMV polymerase assay is performed using a scintillation proximity assay (SPA) as described in several references, such as N. D. Cook, et al., Pharmaceutical Manufacturing International, pages 49-53 (1992); K. Takeuchi, Laboratory Practice, September issue (1992); U.S. Pat. No. 4,568,649 (1986); which are incorporated by reference herein. Reactions are performed in 96-well plates. The assay is conducted in 100 μl volume with 5.4 mM HEPES (pH 7.5), 11.7 mM KCl, 4.5 mM MgCl2, 0.36 mg/ml BSA, and 90 nM ^3H-dTTP. Assays are run with and without CHAPS, (3-[(3-Cholamidopropyl)-dimethylammonio]-1-propane-sulfonate) at a final concentration of 2 mM. HCMV is diluted in enzyme dilution buffer containing 50% glycerol, 250 mM NaCl, 10 mM HEPES (pH 7.5), 100 pg/ml BSA, and 0.01% sodium azide. The HCMV polymerase, which is expressed in recombinant baculovirus-infected SF-9 cells and purified according to literature procedures, is added at 10% (or 10 μl) of the final reaction volume, i.e., 100 μl. Compounds are diluted in 50% DMSO and 10 μl are added to each well. Control wells contain an equivalent concentration of DMSO. Unless noted otherwise, reactions are initiated via the addition of 6 nM biotinylated poly(dA)-oligo(dT) template/primer to reaction mixtures containing the enzyme, substrate, and compounds of interest. Plates are incubated in a 25° C. of 37° C. H2O bath and terminated via the addition of 40 μl/reaction of 0.5 M EDTA (pH 8) per well. Reactions are terminated within the time-frame during which substrate incorporation is linear and varied depending upon the enzyme and conditions used, i.e., 30 min. for HCMV polymerase. Ten μl of streptavidin-SPA beads (20 mg/ml in PBS/10% glycerol) are added following termination of the reaction. Plates are incubated 10 min. at 37° C., then equilibrated to room temperature, and counted on a Packard Topcount. Linear regressions are performed and IC50's are calculated using computer software. Results of the testing of compounds of the present invention in this assay are shown in Tables 1, 2, 5, 9, 10, 11, 13 (except for the last compound which was tested under modified conditions) and 14 below.

[1] = Table 10, Conc 1.30e-005 M, pol type CMV
[2] = Table 10, Conc 1.56e-006 M, pol type CMV
[3] = Table 10, Conc 2.50e-005 M, pol type CMV
[4] = Table 10, Conc 3.13e-006 M, pol type CMV
[5] = Table 10, Conc 5.00e-005 M, pol type CMV
[6] = Table 10, Conc 6.25e-006 M, pol type CMV
[7] = Table 10, Conc 1.00e-004 M, pol type CMV
[8] = Table 5, Conc 1.00e-004 M, pol type CMV
[9] = Table 5, Conc 1.30e-005 M, pol type CMV
[10] = Table 5, Conc 2.50e-005 M, pol type CMV
[11] = Table 5, Conc 3.13e-006 M, pol type CMV
[12] = Table 5, Conc 5.00e-005 M, pol type CMV
[13] = Table 5, Conc 6.25e-006 M, pol type CMV

T1 sequence (P08546 whole entry): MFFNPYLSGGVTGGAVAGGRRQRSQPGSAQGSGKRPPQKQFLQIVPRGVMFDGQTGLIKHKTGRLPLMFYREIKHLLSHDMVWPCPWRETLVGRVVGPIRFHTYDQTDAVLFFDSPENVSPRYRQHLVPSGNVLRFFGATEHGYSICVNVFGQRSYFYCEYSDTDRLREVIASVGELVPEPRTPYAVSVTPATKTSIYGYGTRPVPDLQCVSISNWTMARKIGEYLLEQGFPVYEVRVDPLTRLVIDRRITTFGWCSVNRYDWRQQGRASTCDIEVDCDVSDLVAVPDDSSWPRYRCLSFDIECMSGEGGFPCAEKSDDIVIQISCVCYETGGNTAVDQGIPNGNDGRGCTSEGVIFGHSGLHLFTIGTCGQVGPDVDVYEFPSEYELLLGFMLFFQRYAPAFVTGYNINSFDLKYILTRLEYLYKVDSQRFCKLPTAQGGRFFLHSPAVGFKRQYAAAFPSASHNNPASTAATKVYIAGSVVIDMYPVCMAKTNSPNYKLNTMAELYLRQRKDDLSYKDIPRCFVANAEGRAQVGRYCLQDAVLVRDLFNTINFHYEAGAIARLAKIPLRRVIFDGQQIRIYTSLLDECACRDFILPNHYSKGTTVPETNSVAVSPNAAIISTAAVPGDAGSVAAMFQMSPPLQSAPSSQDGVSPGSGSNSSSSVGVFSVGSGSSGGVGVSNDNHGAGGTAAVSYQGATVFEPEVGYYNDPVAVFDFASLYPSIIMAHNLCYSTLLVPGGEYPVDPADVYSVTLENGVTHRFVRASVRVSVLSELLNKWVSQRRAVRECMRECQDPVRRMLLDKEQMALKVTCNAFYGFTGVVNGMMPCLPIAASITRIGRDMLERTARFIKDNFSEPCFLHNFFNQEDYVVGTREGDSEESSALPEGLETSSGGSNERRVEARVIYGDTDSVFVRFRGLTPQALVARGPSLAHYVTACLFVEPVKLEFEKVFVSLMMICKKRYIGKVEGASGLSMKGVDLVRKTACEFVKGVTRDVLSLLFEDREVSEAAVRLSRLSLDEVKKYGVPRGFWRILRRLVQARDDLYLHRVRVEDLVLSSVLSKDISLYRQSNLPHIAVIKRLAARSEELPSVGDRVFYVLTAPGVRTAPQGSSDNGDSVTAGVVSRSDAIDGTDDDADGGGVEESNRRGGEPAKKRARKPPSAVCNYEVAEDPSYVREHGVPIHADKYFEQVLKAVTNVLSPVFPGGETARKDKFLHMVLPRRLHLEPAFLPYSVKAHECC

O=C(NCc1ccc([N+](=O)[O-])cc1)c1ccc2cccnc2c1O [Example 12, 8-Hydroxy-N-[(4-nitrophenyl)methyl]-7-quinolinecarboxamide]
CMV pol Assay % Inhib (Conc 1.00E−04 M): 99.3%
CMV pol Assay % Inhib (Conc 1.30E−05 M): 38.6%
CMV pol Assay % Inhib (Conc 2.50E−05 M): 85%
CMV pol Assay % Inhib (Conc 3.13E−06 M): −2.5%
CMV pol Assay % Inhib (Conc 5.00E−05 M): 99.4%
CMV pol Assay % Inhib (Conc 6.25E−06 M): 3.8%

CCc1ccccc1NC(=O)c1ccc2cccnc2c1O
% Inhib [1]: 76.3%
% Inhib [2]: 11.6%
% Inhib [3]: 97.5% and 98.4%
% Inhib [4]: 22.1%
% Inhib [5]: 99.7%
% Inhib [6]: 37.7%

O=C(NCc1ccc(Cl)cc1)c1cc(F)c2cccnc2c1O [Example 16, 5-Fluoro-N-[[4-chlorophenyl]methyl]-8-hydroxy-7-quinolinecarboxamide]
CMV pol Assay % Inhib (Conc 1.00E−04 M): 90.4%
CMV pol Assay % Inhib (Conc 1.30E−05 M): 87.7%
CMV pol Assay % Inhib (Conc 2.50E−05 M): 96.6%
CMV pol Assay % Inhib (Conc 3.13E−06 M): 18.2%
CMV pol Assay % Inhib (Conc 5.00E−05 M): 95.6%
CMV pol Assay % Inhib (Conc 6.25E−06 M): 46.3%

O=C(Nc1ncc(-c2ccc(Br)s2)s1)c1ccc2cccnc2c1O [Example 7, N-[5-(5-Bromo-2-thienyl)-2-thiazolyl]-8-hydroxy-7-quinolinecarboxamide]
CMV pol Assay % Inhib (Conc 1.00E−04 M): 94.7%
CMV pol Assay % Inhib (Conc 1.30E−05 M): 64.2%
CMV pol Assay % Inhib (Conc 2.50E−05 M): 83.1%
CMV pol Assay % Inhib (Conc 3.13E−06 M): 29.6%
CMV pol Assay % Inhib (Conc 5.00E−05 M): 90.6%
CMV pol Assay % Inhib (Conc 6.25E−06 M): 47.2%

O=C(Nc1ccc(Cl)cc1)c1cc(Br)c2cccnc2c1O [Example 4, 5-Bromo-N-(4-chlorophenyl)-8-hydroxy-7-quinolinecarboxamide]
CMV pol Assay % Inhib (Conc 1.00E−04 M): 51.9%
CMV pol Assay % Inhib (Conc 1.00E−05 M): 75.1%
CMV pol Assay % Inhib (Conc 1.25E−06 M): 22.6%
CMV pol Assay % Inhib (Conc 1.30E−05 M): 61.1% and 69.7%
CMV pol Assay % Inhib (Conc 1.56E−06 M): 20.6%
CMV pol Assay % Inhib (Conc 2.50E−05 M): 59.3% and 85.6%
CMV pol Assay % Inhib (Conc 2.50E−06 M): 50.4%
CMV pol Assay % Inhib (Conc 3.13E−06 M): 48.4% and 42.8%
CMV pol Assay % Inhib (Conc 3.13E−07 M): 7.2%
CMV pol Assay % Inhib (Conc 5.00E−05 M): 47.6%
CMV pol Assay % Inhib (Conc 5.00E−06 M): 65.4%
CMV pol Assay % Inhib (Conc 6.25E−06 M): 48% and 58.1%
CMV pol Assay % Inhib (Conc 6.25E−07 M): 15.1%
CMV pol Assay % Inhib (Conc 7.81E−07 M): 4.1%

Cl.N#Cc1ccc(NC(=O)c2ccc3cccnc3c2O)cc1 [drawing 210]
% Inhib [1]: 12.8%
% Inhib [3]: 23.1%
% Inhib [4]: 7%
% Inhib [5]: 28.5%
% Inhib [6]: 6.2%

O=C(Nc1cccc2nsnc12)c1ccc2cccnc2c1O
% Inhib [3]: 30.8%

O=C(Nc1cccc2cccnc12)c1ccc2cccnc2c1O
% Inhib [1]: 55.9%
% Inhib [2]: 6.2%
% Inhib [3]: 76.6% and 78.5%
% Inhib (Table 10, Conc 3.13e-008 M, pol type CMV): 27.6%
% Inhib [5]: 85.2%
% Inhib [6]: 32.7%

O=C(Nc1ccccc1Cl)c1ccc2cccnc2c1O
% Inhib [1]: 48.7%
% Inhib [2]: 26.5%
% Inhib [3]: 94.6% and 92.7%
% Inhib [4]: 27.1%
% Inhib [5]: 99.4%
% Inhib [6]: 32%

O=C(Nc1ccc2ccccc2c1)c1ccc2cccnc2c1O
% Inhib [7]: 100%
% Inhib [1]: 29.7%
% Inhib [3]: 73.7% and 77.9%
% Inhib [4]: 13.2%
% Inhib [5]: 98.6%
% Inhib [6]: 21.2%

CCCCCCCCNS(=O)(=O)c1cc(Cl)c2ccc(C)nc2c1O [Example 29, 5-Chloro-8-hydroxy-2-methyl-N-octyl-7-quinolinesulfonamide]
% Inhib (Conc 1.00e−004 M, Table 2): 71.4% and 64%
% Inhib (Conc 1.30e−005 M, Table 2): 36.1% and 32.9%
% Inhib (Conc 2.50e−005 M, Table 2): 44.4% and 42%
% Inhib (Conc 3.13e−006 M, Table 2): 40.9% and 27.3%
% Inhib (Conc 5.00e−005 M, Table 2): 54.1% and 45.8%
% Inhib (Conc 6.25e−006 M, Table 2): 33.9% and 27.3%

O=C(NCc1ccc(Cl)cc1)c1ccc2c(O)cc(C(F)(F)F)nc2c1O [Example 46, N-[(4-Chlorophenyl)methyl]-4,8-dihydroxy-2-trifluoromethyl-7-quinolinecarboxamide]
% Inhib [8]: 83.2%
% Inhib [9]: 30.7%
% Inhib [10]: 54.2%
% Inhib [11]: 13.9%
% Inhib [12]: 67.1%
% Inhib [13]: 23%

O=C(Nc1ccc(Cl)cc1)c1ccc2cccnc2c1O [Example 3, N-(4-Chlorophenyl)-8-hydroxy-7-quinolinecarboxamide]
CMV pol Assay % Inhib (Conc 1.00E−04 M): 100.2%
CMV pol Assay % Inhib (Conc 1.30E−05 M): 75.7%
CMV pol Assay % Inhib (Conc 2.50E−05 M): 97.8%
CMV pol Assay % Inhib (Conc 3.13E−06 M): 20.5%
CMV pol Assay % Inhib (Conc 5.00E−05 M): 100.1%
CMV pol Assay % Inhib (Conc 6.25E−06 M): 36.5%

O=C(Nc1ccc(Oc2ccccc2)cc1)c1ccc2cccnc2c1O
% Inhib [7]: 99.2%
% Inhib [1]: 78.5%
% Inhib [3]: 68% and 95.3%
% Inhib [4]: 17.2%
% Inhib [5]: 98.3%
% Inhib [6]: 39.8%

COc1cc(Cl)c(C)cc1NC(=O)c1ccc2cccnc2c1O
% Inhib [7]: 94%
% Inhib [1]: 60.8%
% Inhib [3]: 49% and 81.5%
% Inhib [4]: 24.4%
% Inhib [5]: 92.1%
% Inhib [6]: 45%

Cc1cccc(NC(=O)c2ccc3cccnc3c2O)c1 [drawing 284]
% Inhib [1]: 64.3%
% Inhib [2]: 29.6%
% Inhib [3]: 97% and 98.1%
% Inhib [4]: 31.2%
% Inhib [5]: 99.6%
% Inhib [6]: 35.6%

O=C(Nc1cc(Cl)ccc1Cl)c1ccc2cccnc2c1O
% Inhib [1]: 50% and 55%
% Inhib [2]: 18.1% and 17.8%
% Inhib [3]: 46.9% and 47.2% and 49.7%
% Inhib [4]: 44.5% and 29.4%
% Inhib [5]: 56.5% and 52.9%
% Inhib [6]: 38.9% and 69.7%

O=C(Nc1ccc([N+](=O)[O-])cc1)c1ccc2cccnc2c1O
% Inhib [7]: 71.3%
% Inhib (Table 10, Conc 1.25e-007 M, pol type CMV): −0.2%
% Inhib [1]: 18.3%
% Inhib [3]: 34.6%
% Inhib [5]: 50.3%
% Inhib [6]: 10.4%

COc1ccc(Cl)c(NC(=O)c2ccc3cccnc3c2O)c1
% Inhib [7]: 99.7%
% Inhib [1]: 69.9%
% Inhib [3]: 97% and 95.6%
% Inhib [4]: 23.8%
% Inhib [5]: 99.5%
% Inhib [6]: 40.8%

Cc1ccc2ccc(C(=O)NCc3ccc(Cl)cc3)c(O)c2n1 [Example 10, N-[(4-Chlorophenyl)methyl]-8-hydroxy-2-methyl-7-quinolinecarboxamide]
CMV pol Assay % Inhib (Conc 1.00E−04 M): 98.6%
CMV pol Assay % Inhib (Conc 1.30E−05 M): 28.4%
CMV pol Assay % Inhib (Conc 2.50E−05 M): 77.7%
CMV pol Assay % Inhib (Conc 3.13E−06 M): −8.6%
CMV pol Assay % Inhib (Conc 5.00E−05 M): 95.8%
CMV pol Assay % Inhib (Conc 6.25E−06 M): 0.8%

Cl.O=C(Nc1cccc(F)c1)c1ccc2cccnc2c1O
% Inhib [7]: 100.3% and 98.7%
% Inhib [1]: 30%
% Inhib [3]: 82.9%
% Inhib [4]: 3.1%
% Inhib [5]: 100%
% Inhib [6]: 4.8%

O=C(Nc1ccc([N+](=O)[O-])cc1C(F)(F)F)c1ccc2cccnc2c1O
% Inhib [3]: 35.9%

CCCCCCCNC(=O)c1ccc2ccc(/C=C/c3ccccc3)nc2c1O [Example 49, N-Heptyl-8-hydroxy-2-(2-phenylethenyl)-7-quinolinecarboxamide]
% Inhib [8]: 98.4%
% Inhib (Table 5, Conc 1.00e-005 M, pol type CMV): 96.1%
% Inhib (Table 5, Conc 1.25e-006 M, pol type CMV): 66.8%
% Inhib [9]: 97%
% Inhib [10]: 97.3%
% Inhib (Table 5, Conc 2.50e-006 M, pol type CMV): 85.5%
% Inhib [11]: 95.2%
% Inhib (Table 5, Conc 3.13e-007 M, pol type CMV): 41.2%
% Inhib [12]: 97.2%
% Inhib (Table 5, Conc 5.00e-006 M, pol type CMV): 92.8%
% Inhib [13]: 96%
% Inhib (Table 5, Conc 6.25e-007 M, pol type CMV): 49.3%

N#Cc1ccccc1NC(=O)c1ccc2cccnc2c1O
% Inhib [1]: 10%
% Inhib [2]: 5.4%
% Inhib [4]: 4%
% Inhib [5]: 45.7%
% Inhib [6]: 4.1%
